Laboratory results: patent US20240252520A1 (priority 2023, published 2024)

Test system: THP-1 monocyte derived macrophages
Experiment: Nicotinic and muscarinic receptor gene expression, THP-1 monocyte derived macrophages
Conditions: M2 cells, 48 hours

Structure (SMILES): COP(=O)(OC)C(O)C(Cl)(Cl)Cl (stereo not shown) [metrifonate, (2,2,2-trichloro-1-hydroxyethyl) dimethylphosphonate]
- CHRM3, CHRNA3 and CHRNA7 expression: down-regulated
